Experimental data taken from PubChem BioAssay AID1508642 (National Center for Advancing Translational Sciences (NCATS), 2021).
Out of some 43,000 compounds screened, about 200 (0.47%) were called active. Not shown: some 12% with an inconclusive outcome. The call rests on the fitted dose curve; in most records, active means well fitted cell-killing curve with a large enough effect; inconclusive means small, poorly fitted or top-dose-only effect, or effect the other way; inactive means flat fitted curve, though single readings scatter. The list shows a part of the results.

Test: Cell viability qHTS assay in S16 Pmp22-F2sN cells; further: nearly all actives have a fitted effect of over 65% in size
Conditions: S16 Pmp22-F2sN Schwann cells (luciferase reporters placed in the Pmp22 gene) viability, CellTiter-Glo, 24 h; series mostly up to 57.5 µM; activity change, negative = cytotoxicity: at the top concentration
Summary of the method: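 Rat S16 Schwann reporter line, 24 h treatment with library compounds delivered at 23 nL per well. Cell viability by CellTiter-Glo luminescence.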
On the % scale 0 is the no-effect control and ±100 the full control effect.

| Compound | activity change, negative = cytotoxicity |
| --- | --- |
| CCOc1cccc(CC(=O)NCc2ccc3c(c2)CCN3C(=O)c2cccc(C)c2)c1OCC | inactive: -25.5% |
| O=C(CCNS(=O)(=O)c1ccc(Br)s1)Nc1ccc(Br)cc1 | inactive: 1.09% |
| Cc1ccc(CNCc2ccc3c(c2)n(C)c(=O)n3C)cc1 | inactive: 2.64% |
| c1ccc(Nc2c(-c3ccccc3)nc3ncccn23)cc1 | inactive: -0.276% |
| CCC(CC)C(=O)N1CCc2cc(OC)c(OC)cc2C1COc1ccc2c(C)cc(=O)oc2c1 (centres undefined) | inactive: 3.22% |
| CCOc1ccc2nc(N(Cc3cccnc3)C(=O)c3ccco3)sc2c1 | inactive: -10.4% |
| O=C(c1cc(S(=O)(=O)N2CCCC2)c[nH]1)N1CCN(c2cccc(Cl)c2)CC1 | inactive: -8.62% |
| CCOc1ccccc1N(CC)C(=O)Cn1ncc2c1-c1ccccc1OC2 | inactive: 3.31% |
| CCOc1ccc(NC(=O)CSc2nc(-c3ccccc3)c3cc(OCC)ccc3n2)cc1 | inactive: 1.21% |
| COc1ccc(CNC(=O)c2cnc3sc4cc(OC)ccc4n3c2=O)cc1 | inactive: 0.992% |
| O=C(NCc1ccccc1Cl)C(=O)NCC(c1ccc2c(c1)OCO2)N1CCOCC1 (centres undefined) | inactive: -2.5% |
| Cc1nc(-c2ccccc2)sc1-c1ccc(SCC(=O)Nc2ccccc2)nn1 | inactive: 14% |
| Cc1ccc(NC(=O)c2ccc(F)c(S(=O)(=O)NCCc3ccccc3)c2)cc1F | inactive: -26.9% |
| Cc1oc(-c2cccc(Br)c2)nc1CN1CCC(C(=O)NCc2ccccc2)CC1 | inactive: 5.21% |
| O=C(NCc1ccccc1Cl)c1cc(-c2ccccc2)n[nH]1 | inactive: -12.7% |
| COCCn1c(CCC(=O)Nc2ccc(OC)c(OC)c2)nc2cccnc21 | inactive: 11.4% |
| O=C(Cn1c2ncccc2c(=O)n1-c1ccccc1)NCc1ccccc1 | inactive: 4.05% |
| Cc1cc(C)cc(NC(=O)CSc2nccn2C2CCCC2)c1 | inactive: 4.95% |
| CCc1ccc(NC(=O)N2CCN(c3nnc(C)c4c(C)n(-c5ccc(Cl)cc5)nc34)CC2)cc1 | inactive: -26.4% |
| COc1cccc(NC(=O)c2csc3c2CCCCC3)c1 | inactive: -1.27% |
| COc1cccc(C2C(C(N)=O)=C(C)Nc3nc(CCCO)nn32)c1 (centres undefined) | inactive: 13.1% |
| COc1cccc(CNC(=O)Cc2c(C)c3cc4c(C)coc4cc3oc2=O)c1 | inactive: 7.1% |
| COc1ccc(CCNc2ncnc3c2cnn3-c2ccc(F)cc2)cc1 | inactive: -8.19% |
| Cc1ccc(Cl)cc1NC(=O)Cn1nnc2sc3c(c2c1=O)CCC(C(C)(C)C)C3 (centres undefined) | inactive: 8.97% |
| Cc1cccc(N(C)S(=O)(=O)c2nnc(NC(=O)C(C)(C)C)s2)c1 | inactive: -1.98% |

| Compound | activity change, negative = cytotoxicity |
| --- | --- |
| COc1ccc(OC)c(CNC(=O)c2cc3c(=O)oc4ccc(C)cc4c3s2)c1 | inactive: 0.233% |
| COc1ccc(N(Cc2cc3cc(OC)ccc3[nH]c2=O)C(=O)c2cccc(Cl)c2)cc1 | inactive: 2.69% |
| Brc1ccc(CN2CCc3nc(Nc4ccccc4)ncc3C2)s1 | inactive: -13.8% |
| COc1cccc(CNC(=O)Nc2cn(CC(C)C)c(=O)c3ccccc23)c1 | inactive: 5.81% |
| COc1ccc(-c2oc3ncn4nc(-c5ccccc5OC)nc4c3c2-c2ccc(OC)cc2)cc1 | inactive: -2.01% |
| OCCN1CCN(c2ncnc3c2cnn3-c2cccc(Cl)c2)CC1 | inactive: 2.58% |
| COc1cc(OC)cc(-n2c(=O)c3sccc3n(Cc3cc(=O)n4c(C)cccc4n3)c2=O)c1 | inactive: -29.8% |
| CCOc1ccc(-n2c(-c3ccc(Br)cc3)cc3c2CC(C)(C)CC3=O)cc1 | inactive: 17.3% |
| CCOC(=O)c1cc(-c2ccc(F)cc2)n(CCC(=O)Nc2nc3cc(C)c(C)cc3s2)c1C | inactive: 11% |
| Cc1nnc2c3ccccc3nc(Nc3ccc(F)cc3Cl)n12 | inactive: -5.14% |
| Cc1nc(N2CCCC2)ncc1C(=O)Nc1ccc(OC(F)(F)F)cc1 | inactive: -2.97% |
| Cc1ccc(NC(=O)Cn2c(=O)ccc3cc(S(=O)(=O)N4CCCC4)ccc32)cc1C | inactive: 4.24% |
| Cc1c(C(=O)N2CCC(C(=O)Nc3ccc(F)c(Cl)c3)CC2)sc2nc[nH]c(=O)c12 | inactive: -10.2% |
| CC(C)c1ccc(-c2noc(SCC(=O)N3CCN(c4ccccc4F)CC3)n2)cc1 | inactive: 17.8% |
| O=C(NCc1cccs1)c1ccc2c(c1)sc1nc(-c3ccccc3)cn12 | inactive: 6.49% |
| COc1ccc(Cn2ccn(CC(=O)Nc3cc(C)ccc3C)c(=O)c2=O)cc1 | inactive: 0.945% |
| COc1ccc(-c2cn3cccnc3n2)cc1NC(=O)c1ccccc1C(F)(F)F | inactive: 3.41% |
| COc1ccc2c(c1)c(=O)c(C(=O)c1ccc(F)cc1)cn2CC(=O)Nc1ccc2c(c1)OCCO2 | inactive: -11.3% |
| Cc1cc2nn(-c3ccc(F)cc3)nc2cc1NC(=O)c1ccc(C(C)(C)C)cc1 | inactive: 19.5% |
| COc1cc(CN(C(=O)c2ccccc2)c2ccccn2)cc(OC)c1OC | inactive: -17.3% |
| COc1cc(C(=O)Nc2cc(C)c(O)c(-c3nc4cc(Cl)ccc4o3)c2)cc(OC)c1OC | inactive: 7.99% |
| CCN(CC)C(=O)c1sc2c(c1C)c(=O)n(-c1ccccc1)c(=O)n2CC(=O)N(CC)c1cccc(C)c1 | inactive: -20.9% |
| Cc1ccc(CNC(=O)c2ccc3c(c2)NC(=O)C(CS(=O)(=O)Cc2cccc(C)c2)N3)cc1 (centres undefined) | inactive: -5.32% |
| COc1cc(NC(=O)CCS(=O)(=O)c2ccc(Br)cc2)cc(OC)c1 | inactive: -4.04% |
